From PubChem BioAssay AID1345082 (National Center for Advancing Translational Sciences (NCATS), 2018)
Hit rate of the full screen: of about 94,000 compounds, about 4,000 (4.3%) were called active. This list was built around the results that the source calls inconclusive (neither active nor inactive); the mix of calls is not that of the screen. Calls follow the shape of the dose curve; as a rule, active = well fitted inhibition curve with a large enough effect; inconclusive = small, poorly fitted or top-dose-only effect; inactive = no such curve, though single readings can be large or run the other way. A potency beside an inconclusive call is a rough fit, not a confirmed value.
% is scaled to controls: 0 for no effect and ±100 for the full control effect; potency is read from the fitted curve at half-maximal effect; tags tell the direction and shape of the fitted curve.

Assay: Cytotoxic Profiling in NIH 3T3 Cell Line of Diverse Libraries Using Quantitative High-Throughput Screening; also: nearly all actives have a fitted effect of over 55% in size
Settings: NIH 3T3 viability, CellTiter-Glo ATP luminescence, 48-72 h; activity change, negative = cytotoxicity: at 96.7 µM (top of the series); series mostly up to 96.7 µM
Summary of the method: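 Luminescent ATP readout (CellTiter-Glo, 10 min RT) after 48 or 72 hr compound exposure of NIH 3T3 cells seeded at 400 cells/well in 1536-well format; quantitative HTS.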
With `COc1ccc(S(=O)(=O)N2CCOC[C@H](Oc3ccc(C(F)(F)F)cn3)C2)cc1` the Potency was inconclusive: 100 µM [inhibitor, single point].
In the case of `CS(=O)(=O)Nc1ccc(C2(C(=O)NCCC3=CCCCC3)CCCCC2)cc1`, the Potency is reported as inconclusive: 50.1 µM [inhibitor, partial curve, poor fit].
For `COc1ccc(C2Cn3nnc(C(=O)NC4CCCCCC4)c3CO2)cc1` (centres undefined), the Potency was inconclusive: 50.1 µM [inhibitor, partial curve, poor fit].
For `Cc1nc2ncccn2c1C(=O)N1CCNCC(C(=O)O)C1` (centres undefined), the “outcome” value was “inactive”.
In the case of `CC1CCc2nn3ccn(CC(=O)Nc4ccc(C(F)(F)F)cc4)c(=O)c3c2C1` (centres undefined), the Potency is reported as inconclusive: 50.1 µM [inhibitor, partial curve, poor fit].
With `CCN(C)C(=O)C(C)N1CCc2onc(-c3ccc(-c4ccccc4)cc3)c2C1` (centres undefined) the Potency was inconclusive: 79.4 µM [inhibitor, partial curve, poor fit].
In the case of `O=C(Nc1nn(Cc2ccccc2)c2cccc(N3CCOCC3)c12)c1cnccn1`, the Potency is reported as inconclusive: 56.2 µM [inhibitor, partial curve, poor fit].
With `Cc1ccc(S(=O)(=O)N2CCCC(Cn3c(C)nc4cccnc43)C2)cc1C` (centres undefined) the Potency was inconclusive: 28.2 µM [inhibitor, partial curve, poor fit].
In the case of `Cc1ccc(C)c(OCc2cc(C(=O)N(C)Cc3n[nH]c4c3CCCC4)no2)c1`, the Potency is reported as inconclusive: 89.1 µM [inhibitor, partial curve, poor fit].
With `CCCc1ccc(CN2CCCC(O)(CN(C)C)C2)o1` (centres undefined) the “activity change, negative = cytotoxicity” value was inactive: -11.4%.
With `COC1CN(c2cccc(F)c2)C12CCN(C(=O)c1ccncc1)CC2` (centres undefined) the “activity change, negative = cytotoxicity” value was inactive: -8.61%.
In the case of `Cn1c(COc2cccc(C(F)(F)F)c2Cl)nnc1C1CC(N)C1` (centres undefined), the Potency is reported as inconclusive: 89.1 µM [inhibitor, single point].
For `COc1ccc(CNC(=O)Cn2c(-c3ccc(F)cc3)nc(C)c(CCO)c2=O)cc1`, the Potency was inconclusive: 35.5 µM [inhibitor, full curve, poor fit].
For `O=C(NCCc1ccccc1)N1CCC(CCc2nc(C3CCOCC3)no2)CC1`, the Potency was inconclusive: 50.1 µM [inhibitor, partial curve, poor fit].
For `O=C(Cc1ccc(F)cc1)NC1CCCN(c2ccc3nnc(-c4ccccc4)n3n2)C1` (centres undefined), the “activity change, negative = cytotoxicity” value was inactive: -40.2%.
For `Cc1noc2c(NC(C)C)cc(-c3cccc(C(F)(F)F)c3)nc12`, the Potency was inconclusive: 79.4 µM [inhibitor, partial curve].
For `Cc1noc(C)c1C(=O)N1CCCC(c2[nH]ncc2-c2ccc(F)cc2)C1` (centres undefined), the Potency was inconclusive: 89.1 µM [inhibitor, single point].
For `COC(=O)c1cccc(NC(=S)N[C@H]2CO[C@H]3[C@@H]2OC[C@@H]3n2nnnc2Oc2ccc3c(c2)OCO3)c1`, the Potency was inconclusive: 44.7 µM [inhibitor, partial curve, poor fit].
For `COc1ccc2c(c1)c(CN1CCOCCNC(=O)CC1)cn2C(C)C`, the Potency was inconclusive: 50.1 µM [inhibitor, partial curve, poor fit].
For `Cc1ccc(NC(=O)c2ccc3oc(-c4ccncc4)nc3c2)cc1`, the “activity change, negative = cytotoxicity” value was inactive: -13.9% [at 138 µM].
With `CC1(C(=O)N2CCC(c3ccccc3)CC2)COCc2cnc(Nc3ccccc3)nc21` (centres undefined) the Potency was active: 44.7 µM.
For `COc1ccc(CN2CCOC(c3cccnc3)C2)cc1Cn1cccn1` (centres undefined), the “activity change, negative = cytotoxicity” value was inactive: -12.8%.
With `CCc1ccc(N2CC(c3noc(-c4cc(F)ccc4F)n3)CC2=O)cc1` (centres undefined) the Potency was inconclusive: 50.1 µM [inhibitor, partial curve, poor fit].
With `CCOC(=O)C1=C(C)N=C2SC=C(CC(=O)NCCc3cccs3)N2C1c1ccccc1F` (centres undefined) the Potency was inconclusive: 50.1 µM [inhibitor, partial curve, poor fit].
In the case of `Cc1cc(C(=O)N2CC(N(C3CCOCC3)S(C)(=O)=O)C2)nn1C`, the “activity change, negative = cytotoxicity” value is reported as inactive: 0.198%.
For `CNC(=O)[C@H]1C[C@H](Oc2cccnc2)CN1C(=O)NCc1ccc(F)cc1`, the “activity change, negative = cytotoxicity” value was inactive: -14.8%.
With `O=C(c1ccccc1Cl)N1CCCC(c2nn(-c3ccccn3)c(=O)[nH]2)C1` (centres undefined) the Potency was inconclusive: 39.8 µM [inhibitor, partial curve, poor fit].
With `CCc1csc(CNC(=O)c2ccc(N(C)Cc3cccs3)nc2)n1` the Potency was inconclusive: 44.7 µM [inhibitor, partial curve, poor fit].
In the case of `CC(C)c1ccc(C(=O)NCc2ccnc3[nH]ccc23)cc1`, the Potency is reported as inconclusive: 25.1 µM [inhibitor, full curve].
In the case of `CCN(Cc1ccncc1)C(=O)CCC[C@@H]1[C@H]2CCCN3CCC[C@@H](CN1C(C)=O)[C@@H]23`, the Potency is reported as inconclusive: 50.1 µM [inhibitor, partial curve, poor fit].
In the case of `NC(=O)c1cccc(-c2ncc3c(n2)OCCN(c2ccccc2)C3=O)c1`, the Potency is reported as inconclusive: 112 µM [inhibitor, single point].
In the case of `O=C(CC1CCCC1)NC1CCCN(c2cc(N3CCCC3)ncn2)C1` (centres undefined), the Potency is reported as inconclusive: 10 µM [inhibitor, partial curve, poor fit].
With `COc1cccc(CNC(=O)C2CN(C3CCCC3)C(=O)N2)c1` (centres undefined) the “activity change, negative = cytotoxicity” value was inactive: -6.01% [at 138 µM].
In the case of `COc1ccc(NC(=O)NC[C@@H]2C=C(C)[C@H](CC(=O)NCCN(C)C)C[C@H]2C(C)C)cc1`, the Potency is reported as inconclusive: 50.1 µM [inhibitor, partial curve, poor fit].
For `O=C(NCCCN1CCCC1=O)c1ccc(-c2ncc3cnc(-c4ccccc4)cn23)cc1`, the Potency was inconclusive: 50.1 µM [inhibitor, partial curve, poor fit].
For `COCc1cc(C[C@@H]2C[C@H](NC(=O)Nc3ccccc3)C2(C)C)no1`, the Potency was inconclusive: 89.1 µM [inhibitor, partial curve, poor fit].
With `COc1cccc(-c2cnc3n[nH]c(-c4ccccc4)c3n2)c1` the Potency was active: 39.8 µM.
For `COc1cccc(-c2noc(CC3CCN(C(=O)c4ccc(F)cc4)CC3)n2)c1`, the Potency was inconclusive: 14.1 µM [inhibitor, full curve, poor fit].
In the case of `CCOC(=O)C1CCCN(C(=O)c2ccc3nc(-c4ccncc4)oc3c2)C1` (centres undefined), the Potency is reported as inconclusive: 50.1 µM [inhibitor, partial curve, poor fit].
